In the supplement of paper PMC3334620:
The full ranking holds about 33,000 sequences; the median of “E-score (-0.5 to 0.5)” is about -0.012, and the highest 2% start at about 0.29. This is one part of the list.

target: T1, Ybr033w (UniProt P38073); assay: PBM E-score (8-mer binding enrichment) (E-score (-0.5 to 0.5)); higher = stronger / more preferred TF binding; most listed sequences are background and not binding sites; conditions: protein concentration: 200 nM; construct: GST-full length
T1 sequence: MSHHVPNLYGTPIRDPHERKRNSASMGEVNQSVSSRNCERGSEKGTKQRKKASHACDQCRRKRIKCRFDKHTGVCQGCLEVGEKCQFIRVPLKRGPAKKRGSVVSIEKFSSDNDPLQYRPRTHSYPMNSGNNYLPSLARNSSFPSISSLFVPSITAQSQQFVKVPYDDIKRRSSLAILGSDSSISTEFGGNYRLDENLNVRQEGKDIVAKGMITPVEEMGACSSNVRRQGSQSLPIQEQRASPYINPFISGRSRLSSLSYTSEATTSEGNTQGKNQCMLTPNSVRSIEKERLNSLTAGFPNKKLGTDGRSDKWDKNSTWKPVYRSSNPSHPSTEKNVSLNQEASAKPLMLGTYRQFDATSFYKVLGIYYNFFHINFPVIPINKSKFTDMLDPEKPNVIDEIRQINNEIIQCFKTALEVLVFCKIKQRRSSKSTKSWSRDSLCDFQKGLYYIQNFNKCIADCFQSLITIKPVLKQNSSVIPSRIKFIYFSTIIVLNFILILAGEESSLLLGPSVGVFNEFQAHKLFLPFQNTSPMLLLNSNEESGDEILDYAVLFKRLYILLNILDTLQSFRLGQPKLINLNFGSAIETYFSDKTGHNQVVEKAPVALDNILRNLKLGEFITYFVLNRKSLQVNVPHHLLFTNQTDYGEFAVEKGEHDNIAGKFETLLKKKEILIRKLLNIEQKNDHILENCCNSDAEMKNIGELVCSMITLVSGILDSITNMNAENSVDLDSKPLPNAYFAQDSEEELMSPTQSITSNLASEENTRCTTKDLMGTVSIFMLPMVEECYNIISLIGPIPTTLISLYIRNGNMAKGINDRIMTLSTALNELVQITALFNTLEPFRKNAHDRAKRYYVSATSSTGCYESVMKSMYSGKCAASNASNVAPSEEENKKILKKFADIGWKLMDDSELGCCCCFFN
Description: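 Universal 'all 10-mer' protein binding microarrays (Agilent AMADID 015681) probed with GST-tagged S. cerevisiae TFs (full-length or DBD) made by in vitro transcription/translation (PURExpress), about 100-200 nM. Bound TF was detected with fluorescent anti-GST. Each ungapped 8-mer (which stands for itself and its reverse complement) is scored by the PBM enrichment score (E-score), a modified Wilcoxon-Mann-Whitney statistic from -0.5 to +0.5, computed with the Universal PBM Analysis Suite. Scale: above 0.35 generally sequence-specific binding.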

| Sequence | PBM E-score |
| --- | --- |
| CGTTTAAC | 0.124 |
| AATTGGCT | 0.15 |
| ATGACAAA | 0.0607 |
| CGAGCTAG | -0.136 |
| AAGCCACC | -0.195 |
| CCTGAGAG | -0.304 |
| ACCCGTTC | -0.0745 |
| AATTCGCT | 0.248 |
| ATGCAGTG | -0.0558 |
| AGCGTGAG | -0.234 |
| AGGGCTTA | -0.142 |
| ACCTTCCA | -0.0391 |
| ACGACCTA | -0.00481 |
| GATATGAC | 0.135 |
| AAATACAG | 0.111 |
| GGACTCCC | -0.378 |
| AATGTGGT | 0.0529 |
| AATAACCC | 0.203 |
| TAACAAGA | 0.069 |
| CGGACTCA | -0.168 |
| AGCGCTAA | -0.00937 |
| CTCTATAC | -0.0417 |
| ACCGTTTA | 0.00161 |
| ATTAGTGG | 0.157 |
| AAGTTAAG | -0.149 |

| Sequence | PBM E-score |
| --- | --- |
| TAATACGA | 0.176 |
| TCTAGAAA | 0.0702 |
| CAATCCCC | -0.0646 |
| AGACCTAA | -0.157 |
| AGTCTACA | -0.0713 |
| CAACTGTG | -0.103 |
| AGGGGGCG | -0.322 |
| AGTTCAAC | 0.128 |
| CATTAGGC | -0.00848 |
| CTCCAACA | 0.105 |
| CATACGAC | 0.0253 |
| ATACTCAA | 0.271 |
| CATGCCGA | -0.0386 |
| ACCGTAAC | -0.0726 |
| AGACTAAC | 0.0352 |
| CGGGTCTC | -0.316 |
| CGGACCAA | 0.062 |
| GGGAGTTA | 0.132 |
| AACCAGAT | 0.123 |
| GTTTCTGA | -0.0471 |
| CGCGAGCA | -0.12 |
| ATAGAATG | 0.0842 |
| CCCTAAAC | -0.126 |
| TGCTCGAA | -0.0338 |
| GGGGCAAC | -0.238 |

| Sequence | PBM E-score |
| --- | --- |
| AGTTTTCG | 0.186 |
| GGCCTGCA | -0.386 |
| ATACTTAG | 0.127 |
| CCCTCATA | -0.0752 |
| ATTTCTGA | 0.0138 |
| TACCACCA | 0.076 |
| GCATGGGC | -0.171 |
| CTAAACGC | 0.0163 |
| AAGCCCCC | -0.436 |
| TATAGATA | 0.0691 |
| CTGGGTCA | -0.14 |
| ACCTATAC | 0.207 |
| ATTGTAAA | 0.287 |
| ATTCAACG | 0.114 |
| ATGGACTC | -0.277 |
| AGGGGCTA | -0.271 |
| CGTCACTC | -0.138 |
| TCACGCAA | 0.175 |
| CGTGCCAA | -0.13 |
| GGCGGCAC | -0.311 |
| CCCTGTTA | 0.0393 |
| GAGCTGTA | -0.11 |
| AGTGGTGG | -0.0557 |
| AAATAAAT | 0.298 |
| CATGTGCG | -0.0312 |

| Sequence | PBM E-score |
| --- | --- |
| CTGCCGAC | -0.185 |
| CAACCTGG | 0.0332 |
| CCCCGGAA | -0.117 |
| AAATCAGA | 0.0788 |
| ACATAAAA | 0.171 |
| CCTACCCC | -0.266 |
| ATCTTTCG | 0.00412 |
| AACAGTGG | -0.157 |
| GATAGTAC | 0.136 |
| AGGGCCCG | -0.274 |
| TACCATGA | -0.0398 |
| ACAGACAT | 0.061 |
| ACGTTTGC | -0.0864 |
| GTCTTTCA | -0.0591 |
| ACCAATCA | 0.208 |
| ACACTTTA | 0.15 |
| CAATTAGC | -0.0298 |
| CCGTCATA | 0.0211 |
| CTGATAAG | 0.126 |
| ACTAACTC | 0.0421 |
| ACGTCGAT | 0.096 |
| CCACGCCC | -0.373 |
| CCCCCACA | -0.378 |
| ATTCTCCA | 0.175 |
| AGACGGGA | -0.0819 |

| Sequence | PBM E-score |
| --- | --- |
| ACTTGTCT | 0.163 |
| AAGCGGAC | -0.143 |
| CGAGAAAC | 0.00673 |
| GACCGCGC | -0.178 |
| ATCGGGAG | -0.0908 |
| ATTCGCTG | 0.0858 |
| AACCGCTT | 0.0495 |
| CCACGCTC | -0.126 |
| ACAATGAG | 0.104 |
| CTTCACAA | 0.0563 |
| ACGGTGAC | -0.156 |
| ATCGACAC | -0.0724 |
| GCGAAGTA | -0.0195 |
| CACGGTGG | -0.161 |
| ACCGGGGC | -0.229 |
| AGCAGTGA | 0.128 |
| AGGGTCGA | -0.243 |
| CCTCAAAG | -0.026 |
| ATGGTGGA | 0.136 |
| CCGTTTAG | 0.0209 |
| AACTGTCT | -0.0958 |
| ATATGCAG | -0.148 |
| GCTGGTCA | -0.141 |
| ATTTAGAG | 0.142 |
| AAGCGTTA | -0.0209 |

| Sequence | PBM E-score |
| --- | --- |
| CAATTTGC | 0.00865 |
| GCCCTTCC | -0.171 |
| AGTGAGTC | -0.054 |
| ACCTCAGT | -0.00425 |
| ACCCCGCG | -0.241 |
| GTAGCAGA | 0.105 |
| CCCCCAAC | -0.292 |
| TAGAACCA | 0.0827 |
| AAGGAAGC | -0.21 |
| GACGCCAC | -0.197 |
| ATCGGACC | -0.122 |
| GAGGTTTA | 0.0128 |
| GTAATAAC | 0.113 |
| AGAGGTGC | -0.229 |
| CAGGCACA | -0.263 |
| CTAGATGA | 0.0268 |
| GTGCTGGA | -0.0549 |
| ATGCCGGC | -0.155 |
| GCGACCGC | -0.187 |
| ACGCTAAC | -0.0823 |
| GCAAGATA | 0.129 |
| CCTGTGGA | -0.248 |
| AGGTCCTA | -0.164 |
| GCTTGGTA | 0.127 |
| CATGGTAC | -0.0607 |

| Sequence | PBM E-score |
| --- | --- |
| GGATGGGA | -0.101 |
| AAAAGCCA | 0.3 |
| CCCGTGAG | -0.149 |
| TAGTACAA | 0.185 |
| CCCGCAGG | -0.216 |
| CTGATCAC | -0.0285 |
| AAGAACGA | 0.108 |
| CACTTCTA | -0.074 |
| ACGTCAGG | -0.168 |
| TCGGTACA | -0.0197 |
| CGCACTTA | 0.0893 |
| AAAGGCTG | -0.0981 |
| CATCGGGG | -0.149 |
| ATGTAGTC | 0.112 |
| GGTAACCA | -0.115 |
| CGGAGTAC | -0.116 |
| CACTACAG | 0.0923 |
| TGATCCCA | -0.00531 |
| GCTTTGAA | -0.0416 |
| ACGTGAAC | -0.271 |
| ATTGTGGA | 0.153 |
| CGTGGAAC | 0.0481 |
